Data published in article PMC4336329 (PLoS ONE, 2015).
About 2,200 (0.71%) of roughly 310,000 compounds showed an effect of 50% or more. Effects have a minus sign here. This is one part of the list.

What follows are compounds tested against human ether-à-go-go-related gene (hERG) potassium channel (human, UniProt Q12809) (assay: primary screen, population patch clamp on CHO cells stably expressing hERG).
human ether-à-go-go-related gene (hERG) potassium channel, sequence (Q12809 whole entry, looked up): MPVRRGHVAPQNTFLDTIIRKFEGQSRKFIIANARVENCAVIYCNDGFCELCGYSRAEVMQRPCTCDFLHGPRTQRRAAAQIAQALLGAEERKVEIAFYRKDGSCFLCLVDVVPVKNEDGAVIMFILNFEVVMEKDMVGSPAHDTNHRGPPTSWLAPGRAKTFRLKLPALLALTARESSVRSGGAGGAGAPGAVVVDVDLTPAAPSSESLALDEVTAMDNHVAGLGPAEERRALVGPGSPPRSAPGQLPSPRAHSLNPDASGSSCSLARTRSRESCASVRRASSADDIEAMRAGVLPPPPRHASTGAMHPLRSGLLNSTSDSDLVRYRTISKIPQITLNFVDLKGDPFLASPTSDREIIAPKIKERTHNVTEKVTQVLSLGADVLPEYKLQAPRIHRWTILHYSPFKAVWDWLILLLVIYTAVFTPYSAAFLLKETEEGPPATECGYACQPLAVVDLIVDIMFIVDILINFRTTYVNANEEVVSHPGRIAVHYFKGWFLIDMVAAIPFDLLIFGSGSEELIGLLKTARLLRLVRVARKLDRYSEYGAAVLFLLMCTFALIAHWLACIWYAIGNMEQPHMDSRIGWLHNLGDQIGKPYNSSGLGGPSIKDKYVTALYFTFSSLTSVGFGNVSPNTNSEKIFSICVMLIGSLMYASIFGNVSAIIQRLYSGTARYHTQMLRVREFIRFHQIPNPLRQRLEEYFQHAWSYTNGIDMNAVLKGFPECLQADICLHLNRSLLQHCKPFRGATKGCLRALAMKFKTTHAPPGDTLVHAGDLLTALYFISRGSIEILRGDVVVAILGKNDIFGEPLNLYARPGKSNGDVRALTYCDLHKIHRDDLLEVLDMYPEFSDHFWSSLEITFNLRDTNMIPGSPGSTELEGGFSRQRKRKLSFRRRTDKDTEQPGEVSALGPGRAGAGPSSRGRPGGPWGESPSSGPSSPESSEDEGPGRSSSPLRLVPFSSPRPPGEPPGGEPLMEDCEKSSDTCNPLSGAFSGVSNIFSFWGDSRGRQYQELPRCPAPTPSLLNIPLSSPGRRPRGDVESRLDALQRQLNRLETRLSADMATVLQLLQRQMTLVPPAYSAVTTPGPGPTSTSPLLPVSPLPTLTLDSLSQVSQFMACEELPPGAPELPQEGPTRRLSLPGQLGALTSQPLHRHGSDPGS

| SMILES | hERG current change (%, negative = inhibition) at 1uM [%] |
| --- | --- |
| Cc1ccc(Cn2c(=O)c3c(ncn3C)n(C)c2=O)cc1 | 11.8 |
| COc1ccc2cc[nH]c2c1 | 12.3 |
| Cc1ccc(CNC2=NCCS2)cc1 | 12.7 |
| CCOc1ccccc1NC(=O)Cn1nnc(C(=O)NCc2ccco2)c1N | 12.1 |
| CCOc1ccccc1CN1CCNC(=O)C1CC(=O)NCCCn1cccn1 (centres unmarked) | 8.63 |
| CCCC(=O)NCc1ccc2c(c1)cc(C)n2C | 11.2 |
| O=C(Nc1nccs1)c1ccccc1Br | -20.3 |
| CCOC(=O)c1ccc(NC(=O)c2ccc(CO)c(C(=O)NC3CCN(C(=O)OCC)CC3)c2)cc1 | 19 |
| CC(C)N(C(=O)C[n+]1ccc(/C=N/O)cc1)C(C)C | 8.44 |
| COc1cccc(C(=O)N(C)CC(=O)Nc2ccc(F)c(F)c2F)c1 | 7.4 |
| COCCNC(=O)c1cc(C(=O)CC(C)C)c[nH]1 | 12.7 |
| Cc1ccc(C(=O)Nc2ccc3cn[nH]c3c2)cc1S(=O)(=O)N1CCOCC1 | 1.29 |
| Cc1nonc1OCCCNc1ccc([N+](=O)[O-])cc1Cl | -6.64 |
| O=c1nc(SCc2cccc(C(F)(F)F)c2)nc2ccccn12 | -13.3 |
| Cc1nn2c3ccccc3n(C)c2nc1=O | 12.9 |
| Cc1cnc(NC(=O)C2CCCO2)s1 (centres unmarked) | 5.44 |
| COc1ccc(C(CNC(=O)c2ccc(S(=O)(=O)N(C)C)cc2)N2CCCC2)cc1 (centres unmarked) | 6.28 |
| COc1ccc(CNC(=O)/C=C/c2cc([N+](=O)[O-])ccc2OC(F)F)cc1OC | 17.2 |
| Cc1ccc(OC(=O)c2cccc([N+](=O)[O-])c2)c(-n2nc3ccccc3n2)c1 | 11.1 |
| COc1ccc(-c2nn(-c3ccccc3)cc2CNCCN2CCOC2=O)c(F)c1 | 0.59 |
| O=C(CSc1nc(-c2ccc(F)cc2)cc(C(F)(F)F)n1)Nc1ccc2c(c1)OCO2 | 6.32 |
| Cc1ccc(C(C[N+](=O)[O-])c2c(N)n(C)c(=O)n(C)c2=O)cc1 (centres unmarked) | 8.69 |
| O=C(Cn1nnc(-c2ccc(F)cc2)n1)Nc1ccc2c(c1)OCCO2 | 8.32 |
| O=c1c2cc(F)ccc2sn1-c1ccccc1 | 9.94 |
| COc1ccc(Cl)cc1NC(=O)C(=O)NC1CCCCCC1 | 9.7 |
| C=CCn1c(=O)/c(=C2/Sc3cc(OC)ccc3N2C)s/c1=C1\C(=O)N(CC)C(=S)N1C | 8.41 |
